Source: patent US11795481B2, “Processes for producing a fermentation product” (Novozymes A/S, priority 2017, dated 2023)

Test system: multi-strain LAB culture
Test: SSF of control mash with 1% w/w infected mash, AA13 candidates, HPLC of organic acids and ethanol (Example 3)
Type: cell-based
Conditions: SSF 32° C. up to 24 hours, 20% DS; for % delta Ethanol / % delta Lactic Acid: vs No Treatment
Method: A control mash was prepared in-house with an industry relevant blend of AA369 and Protease Pfu using a Lab-O-Mat incubator for 2 hours at 85° C. and 36% DS to simulate typical industry conditions. The mash was then frozen prior to use in SSF. An infected mash was prepared by infecting the control mash with a multi-strain LAB culture grown in MRS. The bacteria in control mash was incubated overnight, and then frozen with 20% glycerol. For this experiment, 1% weight/weight of the infected mash was mixed into the control mash. This mimics an infection event at a large-scale ethanol facility. For SSF, all mash was prepared with 1000 ppm of urea to aid with yeast fermentation. All treatments were dosed with a baseline commercial glucoamylase GSA, while AA13 candidates were dosed at either 10 ug/g-DS or 50 ug/g-DS. SSF was performed at 5 g scale with 10 uL/g rehydrated Ethanol Red yeast at 32° C. for up to 24 hours at 20% DS. At the end of fermentation, samples were deactivated with 50 uL of 40% sulfuric acid and then centrifuged. The supernatant was filtered through a 0.2 μm filter and then measured for soluble carbohydrates and organic acids using an ion-exchange H-column on HPLC.

Molecule	average Ethanol (AA13 dose 10 ug/g-DS) [g/L]	average Lactic Acid (AA13 dose 10 ug/g-DS) [g/L]	% delta Ethanol (AA13 dose 10 ug/g-DS) [%]	% delta Lactic Acid (AA13 dose 10 ug/g-DS) [%]	average Ethanol (AA13 dose 50 ug/g-DS) [g/L]	average Lactic Acid (AA13 dose 50 ug/g-DS) [g/L]	% delta Ethanol (AA13 dose 50 ug/g-DS) [%]	% delta Lactic Acid (AA13 dose 50 ug/g-DS) [%]
Penicillium sp-72443: Penicillium sp-72443 AA13 polypeptide of SEQ ID NO: 144 (protein, Penicillium sp-72443) MKAAFISTLQCLLTLVNAHGYLTIPSSRTRLGFEAGIDTCPECSILEPVTAWPDLEAAQVGRSGPCGYNARVSVDYNQPGDYWGNSVVATYTANDIVEVQWCVDNNGDHGGMFTYGICQNQTLVDLFLTPGYLPTTEEKQAAEDCFLEGELKCTDVSGQTCGYNPDCTSDQACYRTDWFTCNAFNDDTNRACQGVDGAALNSCTTTIAGGYTVTKKIKIPDYSSDHTLLRFRWNSYQTAQVYLHCADIAISGSGSGSSSTLSTGSTSSTAATSTVTKTSTTTASTTCISATTVPVVFDELVTTTYGENIYITGSIGQLSSWSTLSAIALSASSYTSSNPLWTVTIDLPAGTTFEYKFIKKETDGSIIWESDPNRSYTVPTGCSGLTATASATWR	79.3	2.9	2.2	−12.5	79.5	3.0	2.3	−10.3
Setophaeosphaeria sp. NN051506: Setophaeosphaeria sp. NN051506 AA13 polypeptide of SEQ ID NO: 149 (protein, Setophaeosphaeria sp. NN051506) MRSAIGKVIAFVASVNAHGYLTSPMSRTGLNAQSGADTCPECTILEPVTAWPDLDSAQVGRSGPCGYNARVSVDYNQPGPRWGSAPVITYTAGDVVDVQWCVDNNGDHGGMFTYRICQDQALVDKLITPGYLPTDAEKQAAEDCFERGLLKCTDVSGQTCGYNPDCQSGQACWRNDWFTCKGFNEGSKCKGVDGAPLNSCYTSIAGGYTVSSKIKIPNYSSNHTLLSFKWNSFQTPQVYLTCADIKIVGSGGTTPTSSSTTTVSTSTATASATSCATPVSNVAVTFTSKTTTIFGQTIKIAGSIAQLGSWNTANAPALSADQYTAANPIWRTTISLPAGTSFEYKFIKVESSGAVTYESGANRVYTVPNGCAGTASVDTTWK	77.2	3.3	−0.5	−0.2	77.5	3.3	−0.1	−1.7
Trichocladium asperum: Trichocladium asperum AA13 polypeptide of SEQ ID NO: 151 (protein, listed as Trichocladium asperum) MKQVTALSLIALATSVQGHGYMIGPASRTRQGFEAGTDTCPECTILEPVASWPDLDAAAIGRSGPCGYNARVSVDYNQPGKAWGNEIVETYAAGDVITVQWCVDNNGDHGGMFTYRICQDQALVDKFTDPSYLPTDAEKQAAEDCFNEGILSCGDVDGQDCSYSPDCSEGAACWRNDWFTCEKFGEGSCKGVDGAALNSCVTTIAGGYTVTKKVKLPDYSSEHTLLSFKWNSFQTGQIYLSCADIAITGGSGGGTSPNTTSSLAPVSSTSAPPSSSTSSSPQETCDAGTSVPVTFEEVAVPEAGQVIKLVGSISELGSWSPSAAIALARSANTWSATVNITAGESFEYKFINVEGSQVWWESDPNRSFTVPCGASANVTGTWR	78.0	3.3	0.5	−1.5	77.8	3.3	0.3	−0.4
Penicillium sp-54569: Penicillium sp-54569 AA13 polypeptide of SEQ ID NO: 143 (protein, Penicillium sp-54569) MKATSILTLASFLSSVNAHGYLTIPSSRTRLGFEAGIDTCPECSILEPVTAWPDLEEAQVGRSGPCGYNARVSVDYNQPGDYWGNSVVATYTADEVVEVQWCVDNNGDHGGMFTYGICQNQTLVDLFLTPGYLPTTDEKQAAEDCFLEGELKCTDVDGQTCGYNPDCTSDEACYRNDWFTCNAFNADSNRACQGVDGAAEGSCTTTISGGYTVTKKIKIPDYDSDHTLLRFRWNSYQTAQVYLHCADIAISGSGSGSTSSSSSSASSTSSTTNTLTTTKSTTTSSATCTAATTISVTFNELVTTTYGENIFISGSISQLSSWSTSSAIALSASSYTSSNPLWTVTISLPVGSTFEYKFIKKETDGSIVWESDPNRSYTVPAGCSGATATATATWR	76.2	3.4	−1.8	3.0	77.4	3.3	−0.3	−0.6
Fusarium sp-75363: Fusarium sp-75363 AA13 polypeptide of SEQ ID NO: 132 (protein, Fusarium sp_75363) MFYSSIITIVTLSTKVYGHGYLSQPMSRTGLNAEAGPDTCPECAILEPVTAWPDLDAAKVGRSGPCGYNARVSVDYNRPGANWGKEPVTTYSPGEVIDVQWCVDNNGDHGGMFTYRICQDQAIVDKFLDPDYIPTEAEKQEAEDCFEAGILPCTDVDGQSCEYSPDCTPDQPCWRNDWFTCKSFQGNDDGKGCRGVDDSPINSCYTSIAGGYTVSSKIKIPDYVSEHTLLSFKWNSFQTPQVYLTCADIAIKA	78.1	3.2	0.6	−3.5	78.5	3.3	1.2	−1.6
